# Results from the supplement of paper PMC8285479.
# Where a name gives a salt, the structure may show the parent alone. ± gives the standard deviation of the averaged measurements. The full ranking holds about 1,900 compounds; the median of “normalised cell viability (NPI; 0 = phenylarsine oxide control, 1 = DMSO control)” is about 1, and the lowest 2% start at about 0.039. Some of the results follow.
# Tested on: NCI-H1944
# Experiment: normalised cell viability (NPI; 0 = phenylarsine oxide control, 1 = DMSO control) (fraction of DMSO control); NCI-H1944 is a non-small cell lung cancer line; higher = more viable cells (less compound toxicity)
# Settings: 6 days
# [1] = glucocorticoid arm: hydrocortisone 2.75 uM co-treatment, compound 1 µM
# [2] = glucocorticoid arm: hydrocortisone 2.75 uM co-treatment, compound 5 µM
# [3] = glucocorticoid arm: hydrocortisone 2.75 uM pre-treated 2 days and continued, compound 1 µM
# [4] = glucocorticoid arm: hydrocortisone 2.75 uM pre-treated 2 days and continued, compound 5 µM
# [5] = glucocorticoid arm: vehicle, compound 1 µM
# [6] = glucocorticoid arm: vehicle, compound 5 µM
# 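Further: CTB read-out in 384-well plates, mean of triplicate wells, normalised per plate against 1 µM phenylarsine oxide and 0.1% DMSO, compounds added 24 h after seeding.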
smiles,measurement,setting,value
O=C(O)[C@]1(Cc2cccc(Nc3nccs3)n2)CC[C@@H](Oc2cccc(Cl)c2F)CC1,normalised cell viability,[1],0.995 ± 0.013
same,normalised cell viability,[2],1 ± 0.071
same,normalised cell viability,[3],0.997 ± 0.013
same,normalised cell viability,[4],1 ± 0.038
same,normalised cell viability,[5],0.895 ± 0.11
same,normalised cell viability,[6],0.577 ± 0.27
C#Cc1cccc(Nc2ncnc3cc(OC)c(OCCCCCCC(=O)NO)cc23)c1,normalised cell viability,[1],0.942 ± 0.019
same,normalised cell viability,[2],0.809 ± 0.15
same,normalised cell viability,[3],0.962 ± 0.021
same,normalised cell viability,[4],0.959 ± 0.041
same,normalised cell viability,[5],0.921 ± 0.023
same,normalised cell viability,[6],0.594 ± 0.43
CC(=O)S[C@@H]1CC2=CC(=O)CC[C@]2(C)[C@H]2CC[C@@]3(C)[C@@H](CC[C@@]34CCC(=O)O4)[C@H]12 [Spironolactone],normalised cell viability,[1],0.9813 ± 0.0061
same,normalised cell viability,[2],0.955 ± 0.026
same,normalised cell viability,[3],0.867 ± 0.22
same,normalised cell viability,[4],0.987 ± 0.022
same,normalised cell viability,[5],0.9787 ± 0.0047
same,normalised cell viability,[6],0.9853 ± 0.0035
CC(C)(C)NCC(O)COc1cccc2[nH]c(=O)[nH]c12 (racemic),normalised cell viability,[1],0.9973 ± 0.0023
same,normalised cell viability,[2],0.974 ± 0.014
same,normalised cell viability,[3],0.992 ± 0.015
same,normalised cell viability,[4],0.988 ± 0.0076
same,normalised cell viability,[5],0.9853 ± 0.0067
same,normalised cell viability,[6],0.985 ± 0.0053
N#Cc1c(-c2ccccc2)no[n+]1[O-] [4-Phenyl-3-furoxancarbonitrile],normalised cell viability,[1],1.01 ± 0.022
same,normalised cell viability,[2],1.06 ± 0.038
same,normalised cell viability,[3],1.02 ± 0.021
same,normalised cell viability,[4],0.934 ± 0.14
same,normalised cell viability,[5],1.01
same,normalised cell viability,[6],0.983 ± 0.03
CCCNC[C@H](O)COc1ccccc1C(=O)CCc1ccccc1 [(S)-(-)-propafenone hydrochloride],normalised cell viability,[1],0.99967 ± 0.00058
same,normalised cell viability,[2],0.9747 ± 0.0047
same,normalised cell viability,[3],1.02 ± 0.026
same,normalised cell viability,[4],1.02 ± 0.015
same,normalised cell viability,[5],0.9967 ± 0.0058
same,normalised cell viability,[6],0.995 ± 0.005
N=C(N)NC(=N)NCCc1ccccc1 [Phenformin hydrochloride],normalised cell viability,[1],0.979 ± 0.011
same,normalised cell viability,[2],0.9773 ± 0.0032
same,normalised cell viability,[3],1.01 ± 0.012
same,normalised cell viability,[4],1 ± 0.034
same,normalised cell viability,[5],1.001 ± 0.009
same,normalised cell viability,[6],0.983 ± 0.015
CN1CCC(=C2c3ccccc3C=Cc3ccccc32)CC1 [Cyproheptadine hydrochloride],normalised cell viability,[1],0.9953 ± 0.0045
same,normalised cell viability,[2],0.968 ± 0.012
same,normalised cell viability,[3],0.9937 ± 0.0021
same,normalised cell viability,[4],0.998 ± 0.018
same,normalised cell viability,[5],0.9967 ± 0.0058
same,normalised cell viability,[6],0.987 ± 0.0092
CN1CCC(=C2c3ccccc3C=Cc3ccccc32)CC1 [Cyproheptadine HCl],normalised cell viability,[1],1.01
same,normalised cell viability,[2],1.03 ± 0.011
same,normalised cell viability,[3],1 ± 0.025
same,normalised cell viability,[4],1.017 ± 0.0058
same,normalised cell viability,[5],1.002 ± 0.0072
same,normalised cell viability,[6],1.003 ± 0.0061
NCC(O)C1CCCCCCC1 (stereo unspecified) [2-Cyclooctyl-2-hydroxyethylamine hydrochloride],normalised cell viability,[1],0.987 ± 0.012
same,normalised cell viability,[2],0.971 ± 0.016
same,normalised cell viability,[3],0.998 ± 0.013
same,normalised cell viability,[4],0.972 ± 0.02
same,normalised cell viability,[5],0.9697 ± 0.0015
same,normalised cell viability,[6],0.9663 ± 0.0085
CN1CCN(CC/C=C2/c3ccccc3Sc3ccc(S(=O)(=O)N(C)C)cc32)CC1 [Thiothixene hydrochloride],normalised cell viability,[1],0.981 ± 0.0066
same,normalised cell viability,[2],0.929 ± 0.033
same,normalised cell viability,[3],1.01 ± 0.018
same,normalised cell viability,[4],1 ± 0.014
same,normalised cell viability,[5],0.9763 ± 0.0042
same,normalised cell viability,[6],0.984 ± 0.0085
CC(C)(C=O)Cc1cc(C(C)(C)C)c(O)c(C(C)(C)C)c1,normalised cell viability,[1],1.01 ± 0.01
same,normalised cell viability,[2],1.017 ± 0.0058
same,normalised cell viability,[3],1.013 ± 0.0058
same,normalised cell viability,[4],1.005 ± 0.0071
same,normalised cell viability,[5],0.988 ± 0.0076
same,normalised cell viability,[6],1.005 ± 0.0087
O=C(/C=C/C#Cc1cccc(NS(=O)(=O)c2ccccc2)c1)NO [Oxamflatin],normalised cell viability,[1],0.974 ± 0.015
same,normalised cell viability,[2],0.599 ± 0.44
same,normalised cell viability,[3],0.992 ± 0.019
same,normalised cell viability,[4],0.901 ± 0.11
same,normalised cell viability,[5],0.843 ± 0.17
same,normalised cell viability,[6],0.509 ± 0.54
Cc1cn[nH]c1 [4-Methylpyrazole hydrochloride],normalised cell viability,[1],0.9937 ± 0.0021
same,normalised cell viability,[2],0.999 ± 0.021
same,normalised cell viability,[3],0.994 ± 0.0066
same,normalised cell viability,[4],1.02 ± 0.099
same,normalised cell viability,[5],0.983 ± 0.012
same,normalised cell viability,[6],0.9903 ± 0.0085
OCCN1CCN(CC/C=C2/c3ccccc3Sc3ccc(C(F)(F)F)cc32)CC1 [cis-(Z)-Flupenthixol dihydrochloride],normalised cell viability,[1],0.978 ± 0.024
same,normalised cell viability,[2],0.876 ± 0.036
same,normalised cell viability,[3],0.992 ± 0.019
same,normalised cell viability,[4],1.01 ± 0.021
same,normalised cell viability,[5],1.017 ± 0.0058
same,normalised cell viability,[6],1.004 ± 0.01
C[C@@H](NCCCc1cccc(C(F)(F)F)c1)c1cccc2ccccc12 [Cinacalcet HCl],normalised cell viability,[1],0.997 ± 0.022
same,normalised cell viability,[2],0.9773 ± 0.0091
same,normalised cell viability,[3],0.979 ± 0.016
same,normalised cell viability,[4],0.984 ± 0.026
same,normalised cell viability,[5],0.983 ± 0.011
same,normalised cell viability,[6],0.9897 ± 0.0085
CC[N+](C)(C)c1cccc(O)c1 [Edrophonium chloride],normalised cell viability,[1],0.9987 ± 0.0023
same,normalised cell viability,[2],0.988 ± 0.013
same,normalised cell viability,[3],0.998 ± 0.013
same,normalised cell viability,[4],1 ± 0.036
same,normalised cell viability,[5],0.9933 ± 0.0042
same,normalised cell viability,[6],0.997 ± 0.0052
NCCc1c[nH]cn1 [Histamine 2HCl],normalised cell viability,[1],1.01
same,normalised cell viability,[2],0.988 ± 0.012
same,normalised cell viability,[3],1 ± 0.011
same,normalised cell viability,[4],0.988 ± 0.012
same,normalised cell viability,[5],1.01 ± 0.011
same,normalised cell viability,[6],1.01
NCCc1c[nH]cn1 [Histamine dihydrochloride],normalised cell viability,[1],0.9973 ± 0.0046
same,normalised cell viability,[2],0.999 ± 0.021
same,normalised cell viability,[3],0.987 ± 0.019
same,normalised cell viability,[4],0.9843 ± 0.0065
same,normalised cell viability,[5],0.9997 ± 0.0093
same,normalised cell viability,[6],0.9953 ± 0.0055
CN(C)CCC(c1ccc(Cl)cc1)c1ccccn1 (racemic) [(±)-Chlorpheniramine maleate],normalised cell viability,[1],0.9833 ± 0.0025
same,normalised cell viability,[2],0.985 ± 0.018
same,normalised cell viability,[3],0.9843 ± 0.0078
same,normalised cell viability,[4],0.991 ± 0.028
same,normalised cell viability,[5],0.9727 ± 0.0021
same,normalised cell viability,[6],0.987 ± 0.0069
CC(C)(C)c1cnc(CSc2cnc(NC(=O)C3CCNCC3)s2)o1,normalised cell viability,[1],0.0382 ± 0.0034
same,normalised cell viability,[2],0.036 ± 0.0061
same,normalised cell viability,[3],0.148 ± 0.013
same,normalised cell viability,[4],0.133 ± 0.018
same,normalised cell viability,[5],0.00695 ± 0.0037
same,normalised cell viability,[6],0.00933 ± 0.00035
O=C(O)CCCCCCCC(=O)O [Azelaic acid],normalised cell viability,[1],0.9967 ± 0.0035
same,normalised cell viability,[2],1.01 ± 0.011
same,normalised cell viability,[3],0.993 ± 0.0089
same,normalised cell viability,[4],1.015 ± 0.0071
same,normalised cell viability,[5],0.986 ± 0.012
same,normalised cell viability,[6],0.995 ± 0.013
CC(=Cc1ccc(C(=O)O)cc1)c1ccc2c(c1)C(C)(C)CCC2(C)C,normalised cell viability,[1],0.949 ± 0.009
same,normalised cell viability,[2],0.898 ± 0.013
same,normalised cell viability,[3],0.976 ± 0.047
same,normalised cell viability,[4],0.9253 ± 0.0023
same,normalised cell viability,[5],1.003 ± 0.0058
same,normalised cell viability,[6],0.981 ± 0.014
COC(=O)Nc1nc2cc(C(=O)c3cccs3)ccc2[nH]1 [Nocodazole],normalised cell viability,[1],0.303 ± 0.043
same,normalised cell viability,[2],0.241 ± 0.033
same,normalised cell viability,[3],0.9187 ± 0.0025
same,normalised cell viability,[4],0.972 ± 0.077
same,normalised cell viability,[5],0.0737 ± 0.0078
same,normalised cell viability,[6],0.0638 ± 0.0075
CC1(C)CCC(NC(=O)[C@@H](N)CCC(=O)O)CC1,normalised cell viability,[1],0.979 ± 0.013
same,normalised cell viability,[2],0.975 ± 0.016
same,normalised cell viability,[3],0.999 ± 0.011
same,normalised cell viability,[4],0.982 ± 0.046
same,normalised cell viability,[5],0.9703 ± 0.0085
same,normalised cell viability,[6],0.985 ± 0.012
O=C(O)C1CCNCC1 [Isonipecotic acid],normalised cell viability,[1],1.003 ± 0.0058
same,normalised cell viability,[2],1.02 ± 0.017
same,normalised cell viability,[3],1.01 ± 0.018
same,normalised cell viability,[4],1.04 ± 0.07
same,normalised cell viability,[5],0.9937 ± 0.0015
same,normalised cell viability,[6],1.001 ± 0.0078
